Data from the supplement of paper PMC4967469.
Lines with a small IC50 respond at low doses; a fit beyond the top or the lowest dose is shown as a bound at that dose. AUC, from the same fit, is the share of area under the viability curve across the 256-fold dose range; the more sensitive the line, the further below 1. A top dose marked as inferred comes from the curve model; the source does not state it.

Compound: C=CC(=O)Nc1cccc(Nc2nc(NC3CCC(N(C)C)CC3)nc3c2ncn3C(C)C)c1 [WZ3105]
Test: Viability of human cancer cell lines after 72 h of drug (GDSC screen)
Conditions: top dose inferred
Protocol: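 Human cancer cell lines in 384-well plates, medium with 10% serum, drug for 72 h over a 256-fold dose range (nine 2-fold or five 4-fold steps up to the top dose). Adherent lines were fixed and stained with the nucleic acid dye Syto60, suspension lines read with resazurin; signal relative to control wells, capped at 0 and 100%. One two-parameter sigmoid per drug and line, fitted in a mixed model over all curves with the slope shared within a line.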

## TE-8 (oesophagus, adherent, top dose 1.28 µM)
  AUC: 0.958
  IC50: > 1.28 µM

## TE-9 (oesophagus, adherent, top dose 1.28 µM)
  AUC: 0.987
  IC50: > 1.28 µM

## TE-10 (oesophagus, adherent, top dose 1.28 µM)
  AUC: 0.834
  IC50: 0.814 µM

## TE-11 (oesophagus, adherent, top dose 1.28 µM)
  AUC: 0.954
  IC50: > 1.28 µM

## TE-12 (oesophagus, suspension, top dose 1.28 µM)
  AUC: 0.864
  IC50: > 1.28 µM

## TE-15 (oesophagus, suspension, top dose 1.28 µM)
  AUC: 0.761
  IC50: 0.511 µM

## TE-441-T (rhabdomyosarcoma, adherent, top dose 1.28 µM)
  AUC: 0.579
  IC50: 0.131 µM

## TGBC1TKB (biliary tract, adherent, top dose 1.28 µM)
  AUC: 0.975
  IC50: > 1.28 µM

## TGBC11TKB (stomach, adherent, top dose 1.28 µM)
  AUC: 0.968
  IC50: > 1.28 µM

## TGBC24TKB (biliary tract, adherent, top dose 1.28 µM)
  AUC: 0.911
  IC50: > 1.28 µM

## TGW (neuroblastoma, adherent, top dose 1.28 µM)
  AUC: 0.992
  IC50: > 1.28 µM

## THP-1 (acute myeloid leukaemia, suspension, top dose 1.28 µM)
  AUC: 0.695
  IC50: 0.264 µM

## TK10 (kidney, adherent, top dose 1.28 µM)
  AUC: 0.92
  IC50: > 1.28 µM

## TK (B-cell lymphoma, suspension, top dose 1.28 µM)
  AUC: 0.935
  IC50: > 1.28 µM

## TMK-1 (stomach, adherent, top dose 1.28 µM)
  AUC: 0.929
  IC50: > 1.28 µM

## TOV-21G (ovary, adherent, top dose 1.28 µM)
  AUC: 0.982
  IC50: > 1.28 µM

## TOV-112D (ovary, adherent, top dose 1.28 µM)
  AUC: 0.647
  IC50: 0.205 µM

## TT2609-C02 (thyroid, adherent, top dose 1.28 µM)
  AUC: 0.835
  IC50: 0.918 µM

## TT (thyroid, adherent, top dose 1.28 µM)
  AUC: 0.869
  IC50: > 1.28 µM

## TUR (B-cell lymphoma, suspension, top dose 1.28 µM)
  AUC: 0.569
  IC50: 0.122 µM

## TYK-nu (ovary, adherent, top dose 1.28 µM)
  AUC: 0.932
  IC50: > 1.28 µM

## U031 (kidney, adherent, top dose 1.28 µM)
  AUC: 0.978
  IC50: > 1.28 µM

## U251 (glioma, adherent, top dose 1.28 µM)
  AUC: 0.743
  IC50: 0.38 µM

## U-2-OS (osteosarcoma, adherent, top dose 1.28 µM)
  AUC: 0.981
  IC50: > 1.28 µM

## U-87-MG (glioma, adherent, top dose 1.28 µM)
  AUC: 0.832
  IC50: 1.02 µM

## U-118-MG (glioma, adherent, top dose 1.28 µM)
  AUC: 0.883
  IC50: > 1.28 µM

## U-698-M (B-cell leukaemia, suspension, top dose 1.28 µM)
  AUC: 0.559
  IC50: 0.116 µM

## UACC-62 (melanoma, adherent, top dose 1.28 µM)
  AUC: 0.905
  IC50: > 1.28 µM

## UACC-257 (melanoma, adherent, top dose 1.28 µM)
  AUC: 0.682
  IC50: 0.295 µM

## UACC-812 (breast, adherent, top dose 1.28 µM)
  AUC: 0.991
  IC50: > 1.28 µM

## UACC-893 (breast, adherent, top dose 1.28 µM)
  AUC: 0.742
  IC50: 0.51 µM

## UM-UC-3 (bladder, adherent, top dose 1.28 µM)
  AUC: 0.744
  IC50: 0.378 µM

## UMC-11 (lung carcinoid, adherent, top dose 1.28 µM)
  AUC: 0.83
  IC50: 0.687 µM

## UWB1.289 (ovary, adherent, top dose 1.28 µM)
  AUC: 0.879
  IC50: > 1.28 µM

## VA-ES-BJ (soft tissue, adherent, top dose 1.28 µM)
  AUC: 0.894
  IC50: > 1.28 µM

## VAL (B-cell lymphoma, suspension, top dose 1.28 µM)
  AUC: 0.827
  IC50: 0.784 µM

## VCaP (prostate, adherent, top dose 1.28 µM)
  AUC: 0.599
  IC50: 0.151 µM

## VM-CUB-1 (bladder, adherent, top dose 1.28 µM)
  AUC: 0.964
  IC50: > 1.28 µM

## VMRC-MELG (melanoma, adherent, top dose 1.28 µM)
  AUC: 0.986
  IC50: > 1.28 µM

## VMRC-RCW (kidney, adherent, top dose 1.28 µM)
  AUC: 0.982
  IC50: > 1.28 µM

## VMRC-RCZ (kidney, adherent, top dose 1.28 µM)
  AUC: 0.938
  IC50: > 1.28 µM
